# Assay results reported in paper PMC12136788.
# Some of the results follow.
# B1: chr1:215620365:215620495:+|CDS|ENSG00000136636|unk|total|mutant (ssRNA)
# RNA: GGGAGUUCUACAGUCCGACGAUCGGUUUUUCAGAAUCCAAGAAAAGGUCAUCAGAAGAUGAAAAUGAAAAUAAAACCGAGUUCCGGAAGAAAGGAGGAUUUGAAGGGGGAGGAUUCCUUGGAAGAAAGAAAGUUCCCUAUCUGCAACAGAGGAUUGAGCAUCA
# B2: chr12:14497711:14497812:+|CDS|ENSG00000171681|unk|total|mutant (ssRNA)
# RNA: GGGAGUUCUACAGUCCGACGAUCACAGCGUCUGCCCCCAGAAGCUGCCAGCACAUCUCUGCCUCAGAAGCCACACUUGAAGUCCGCACGCGUUCAGAGUCAAAAUGGCACCGUACUGUCAUGGAGUGUCCUGGAGGUGGAUCGCAACAGAGGAUUGAGCAUCA
# B3: chr13:113500007:113500108:+|CDS|ENSG00000150403|unk|FALSE|unique (ssRNA)
# RNA: GGGAGUUCUACAGUCCGACGAUCGAAGAGGCCAAUUCUAAGCAAAAUAUAACAAAACGAGAAGUGGAGGAUGACUUGGGUCUUAGCAUGCUGAUUGACUCCCAGAACAACCAGUAUAUUUUGACCAAGCCCAGAGAUUCAACCCAACAGAGGAUUGAGCAUCA
# B4: chr6:122458524:122458701:-|CDS|ENSG00000111897|unk|FALSE|unique (ssRNA)
# RNA: GGGAGUUCUACAGUCCGACGAUCGGAAGUGCCCCGUGUUUGCUAUGCCGAUGCUGUCCUAGUGGAAACAACUCCACUGUAACUAGAUUGAUCUAUGCACUUUUCUUGCUUGUUGGAGUAUGUGUAGCUUGUGUAAUGUUGAUACAACAGAGGAUUGAGCAUCA
# B5: chr7:13894654:13894755:-|3pUTR|ENSG00000006468|msi1|FALSE|unique (ssRNA)
# RNA: GGGAGUUCUACAGUCCGACGAUCUAUUCUCUUUCAUGCUGAAUUUACUAUGACCAUUUAUAAGCAGUGCAGUUAACUACAGAUAGCAUUUCAGGACAAAAUAGAUGACUCAAACCAUUUAUUGCUUAAAAAAUAGCUUACGCCCAACAGAGGAUUGAGCAUCA
# B6: chr10:74118286:74118577:+|3pUTR|ENSG00000035403|msi1|total|mutant (ssRNA)
# RNA: GGGAGUUCUACAGUCCGACGAUCGUAUUCUCAAACACAGUUACACUUGUGCACCCUCUAUCCCAACCGGCAGACUGGGUUUCCCGCCCAUGGACUUCACAUAAGCUCAGAAUCCAAGUGAACACCCGCCAGACACUCUGCUCUCAACAGAGGAUUGAGCAUCA
# B7: chrX:100674576:100674677:+|3pUTR|ENSG00000102359|msi1|FALSE|bound_elsewhere (ssRNA)
# RNA: GGGAGUUCUACAGUCCGACGAUCUUGCAAUCCACACCAAAUCAAUCUUUGAAAACAUUCCUCCAUUCGGUUCAUACAUACAGUAGAAACCACUGUGGCUGCCCUUAAUCCAGUGUGCUUAUAGGAAAUCAGUUAGCAGCUGACCAACAGAGGAUUGAGCAUCA
# B8: ENSG00000033178:stop:overlap|stop_codon|ENSG00000033178|stop_codon|NA|stop_codon (ssRNA)
# RNA: GGGAGUUCUACAGUCCGACGAUCCUAUUGAAAUUUAUGGCUGUCCGAAUAUUUGUUUGUUAAUACAUAAGUGUUCUGUAUAUUAGUAUUCUCUUAUCCUUCACAUCCAGCUUUGCUACUCUGUGGCAUUAGACAACUUUUUUCCAACAGAGGAUUGAGCAUCA
# B9: chrX:48700291:48700392:+|CDS|ENSG00000101945|unk|FALSE|unique (ssRNA)
# RNA: GGGAGUUCUACAGUCCGACGAUCGCUCCGUCGCUGGGAGCAGGAGCUCAAUGCCAAGCGCAGCCAUCUGGGACGCAUCACUGUAGAGAAUGAGGUGGACCUGGACGGCCCUCCGCGGGCCUUCGUGUACAUCAAUGAGUACCGCAACAGAGGAUUGAGCAUCA
# B10: chr10:63621301:63621396:+|3pUTR|ENSG00000165476|msi1_unk|total|mutant (ssRNA)
# RNA: GGGAGUUCUACAGUCCGACGAUCUGUAAGAUAAUAAAGCCGGUUUUAUAUAUUCUUUAAAUUUUUACUUAUAUAAUACUUUCCCGUUUUUCCACCAUCAGCUGAAAGUUUUUGAAACAAAUAUUUGAAAACCAGGUAUCCACACAACAGAGGAUUGAGCAUCA
# B11: ENSG00000124766:be:win_851|CDS|ENSG00000124766|bound_else_gene|NA|bound_elsewhere_windowed (ssRNA)
# RNA: GGGAGUUCUACAGUCCGACGAUCCGGGCAAGCACCUGGCGGAGAAGAAGGUGAAGCGCGUCUACCUGUUCGGCGGCCUGGGCACGUCGUCGUCGCCCGUGGGCGGCGUGGGCGCGGGAGCCGACCCCAGCGACCCCCUGGGCCCAACAGAGGAUUGAGCAUCA
# B12: chr1:169376695:169376796:+|CDS|ENSG00000117475|unk|total|mutant (ssRNA)
# RNA: GGGAGUUCUACAGUCCGACGAUCUCUUCAGCCCGGGAAAAUGCUCACUGAAAAAGCAAUGGAAGUUAAAGCUGUAAGAAUAUCCGUUCCCAAAGCUGCUAUAACUCAUGAUAUCCCCAACAAAAAUACAAAGGUUAAGUCUCUCAACAGAGGAUUGAGCAUCA
# B13: chr2:99394746:99394872:+|CDS|ENSG00000158417|unk|FALSE|unique (ssRNA)
# RNA: GGGAGUUCUACAGUCCGACGAUCGAUGUGAGAAUUGAACGAGAUGCACAAGAAAUGGCUGAUAGUUUAGGAGUUAGAAUUUUUAGUGCAGAAAUUAUUUAUCAUUUAUUUGAUGCCUUUACAAAAUAUAGACAAGACUACAAGCAACAGAGGAUUGAGCAUCA
# B14: ENSG00000150347:stop:overlap|stop_codon|ENSG00000150347|stop_codon|NA|stop_codon (ssRNA)
# RNA: GGGAGUUCUACAGUCCGACGAUCAUCCUCAAGCUGCCUUUCCAUCUUCCCAGCUGUCAUCCGUGCACCCCAGUACAAAACUGUAGGCUCAGCUCUGCCCAGCAGUCCAAAGCGGCAUGGCCAACAGAGCUUCACUCCUUACCCCAACAGAGGAUUGAGCAUCA
# B15: chr3:170996346:170998103:-|three_prime_utr|ENSG00000163581|control|control|control (ssRNA)
# RNA: GGGAGUUCUACAGUCCGACGAUCGGAAAUUGCUGCAGAAUUCCAAAAGAAGAGUGGCUCAGCCCACAGGCCAAAAGCUGCUGUAGAAAUGAAAUUCCUAGGAGCUACAGAGACUGUGUAAAAAAAAAACCCUGCUUUUUGACACAACAGAGGAUUGAGCAUCA
# B16: chr1:28768968:28769069:+|3pUTR|ENSG00000198492|msi1|total|mutant (ssRNA)
# RNA: GGGAGUUCUACAGUCCGACGAUCGACUGCAGCAACGGUUGCAUCUGCAUAUCCUAAGAGGAAAAAAUGACCUUCAAGAGAAUCCGGACUUUUUUCUUAAUUUCACUGACUUCAGAGACGAUUGCAGACUUGCAGUUUAAGUAUCAACAGAGGAUUGAGCAUCA
# B17: chr1:71064632:71064733:-|3pUTR|ENSG00000132485|msi1|total|mutant (ssRNA)
# RNA: GGGAGUUCUACAGUCCGACGAUCGCUAAGACAGGAUUACCCCGGCUUGCCUGAACUUUGGGCAUGGAAGAAAGACUGGAAACCCGUUGGAAACAACAUACUUAUGGAAAAGAAAGUCAGCCUUUUUAUGCUGUUAACAGAUGUCAACAGAGGAUUGAGCAUCA
# B18: chr5:178210945:178211047:+|3pUTR|ENSG00000197451|unk|total|mutant (ssRNA)
# RNA: GGGAGUUCUACAGUCCGACGAUCCUGCUGCCGCUCUGCAGCCUGGACCUGUGGACCCUGGUUGUAAAGAGUAAAUUGUAUCUCCGGAAACCAGUGUCACCUUUUUUUCACCUUUUAAUUUUAUAUUAUUUGCGUCAUACAUUUCAACAGAGGAUUGAGCAUCA
# B19: chr2:27243795:27243896:+|3pUTR|ENSG00000084774|unk|total|mutant (ssRNA)
# RNA: GGGAGUUCUACAGUCCGACGAUCACUUAAUAAACAGCCGAGCUGUCCCUUGAUGCUGAGUGCCGCCGAACAGAGCUUUCUUUCCGAAAAUUGAGCAGAUUCCCAAAUUAUAAGAGCAGCCUCACCAGGCAGGGCUCUGGCCCGCAACAGAGGAUUGAGCAUCA
# B20: chr4:186619803:186619904:-|CDS|ENSG00000083857|msi1|total|mutant (ssRNA)
# RNA: GGGAGUUCUACAGUCCGACGAUCAGACGGAGACCCUUUCAGCCAGUUCACUAUUAACUUCAAUACUGGAGUUAUCAAUGUCACCGCUCCUCUGGACUUUGAGGCCCACCCGGCAUAUAAGCUGAGCAUACGCGCAACUGACUCCAACAGAGGAUUGAGCAUCA
# B21: ENSG00000107863:be:win_2751|CDS|ENSG00000107863|bound_else_gene|NA|bound_elsewhere_windowed (ssRNA)
# RNA: GGGAGUUCUACAGUCCGACGAUCCUCUGGGUCCAGAAAAGAUUCUUCCUCAGAGGUCUUCAGUGAUGCUGCCAAGGAAGGGUGGCUUCAUUUCCGACCCCUUGUCACCGAUAAGGGCAAGCGAGUUGGUGGAAGUAUUCGGCCCAACAGAGGAUUGAGCAUCA
# B22: chr7:101138022:101138407:+|3pUTR|ENSG00000106366|msi1|total|mutant (ssRNA)
# RNA: GGGAGUUCUACAGUCCGACGAUCCUCUUGGUGGGGAGGGGUGUACCUAAAUAUUUAUCAUAUCCUUGCCCUUGAGUGCUUGUCCGAGAGAAAGAGAACUACUAAGGAAAAUAAUAUUAUUUAAACUCGCUCCCCGUGUUUCUUCAACAGAGGAUUGAGCAUCA
# Target: MSI1 full-length (mouse, UniProt Q61474 1-362)
# Assay: nsRBNS (natural sequence RNA bind-n-seq); RBNS binding buffer (assumed for nsRBNS): 25 mM Tris pH 7.5, 150 mM KCl, 3 mM MgCl2, 0.01% Triton X-100, 500 ug/ml BSA, 20 U/ml SUPERase-In, 4 C; UNK is unkempt and MSI1 is Musashi-1; names of the RNAs are library labels; protein concentration not given here; high values mean tight binding
# Sequence of UniProt Q61474 (Q61474 whole entry): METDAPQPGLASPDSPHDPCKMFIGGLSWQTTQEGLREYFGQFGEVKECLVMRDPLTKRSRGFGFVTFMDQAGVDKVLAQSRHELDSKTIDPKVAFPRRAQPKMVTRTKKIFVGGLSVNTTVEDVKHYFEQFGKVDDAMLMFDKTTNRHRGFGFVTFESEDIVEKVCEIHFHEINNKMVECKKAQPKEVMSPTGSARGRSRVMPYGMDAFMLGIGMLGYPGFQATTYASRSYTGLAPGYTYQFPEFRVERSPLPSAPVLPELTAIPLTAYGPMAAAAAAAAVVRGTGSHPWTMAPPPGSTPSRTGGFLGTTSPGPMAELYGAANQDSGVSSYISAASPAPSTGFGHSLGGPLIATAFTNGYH
row,Binder,binding signal
1,B1,0.468 enrichment R
2,B2,0.412 enrichment R
3,B3,0.529 enrichment R
4,B4,1.09 enrichment R
5,B5,2.99 enrichment R
6,B6,0.409 enrichment R
7,B7,6.78 enrichment R
8,B8,0.607 enrichment R
9,B9,0.398 enrichment R
10,B10,1.51 enrichment R
11,B11,0.287 enrichment R
12,B12,0.307 enrichment R
13,B13,35 enrichment R
14,B14,0.496 enrichment R
15,B15,0.548 enrichment R
16,B16,0.249 enrichment R
17,B17,0.388 enrichment R
18,B18,0.47 enrichment R
19,B19,0.451 enrichment R
20,B20,0.413 enrichment R
21,B21,0.247 enrichment R
22,B22,1.11 enrichment R
